In PubChem BioAssay AID360 (National Center for Advancing Translational Sciences (NCATS), 2006):
Screen size: about 48,000 compounds; about 550 (1.1%) were called active. Inconclusive results, whose numbers are uncertain, are shown with a selection of clear calls. Rule as the data show it: active = potency below about 15 µM; inconclusive = mostly about 16 µM to 33 µM; inactive = weaker than that. No potency is given beside an inconclusive call; the fits are too rough.

What follows are compounds tested against Lysosomal acid glucosylceramidase (Homo sapiens) (UniProt P04062) (assay: Glucocerebrosidase). Conditions: purified enzyme, resorufin glucoside fluorescence (screen aimed at inhibitors), 20 min.
Sequence of UniProt P04062 (P04062 whole entry, looked up): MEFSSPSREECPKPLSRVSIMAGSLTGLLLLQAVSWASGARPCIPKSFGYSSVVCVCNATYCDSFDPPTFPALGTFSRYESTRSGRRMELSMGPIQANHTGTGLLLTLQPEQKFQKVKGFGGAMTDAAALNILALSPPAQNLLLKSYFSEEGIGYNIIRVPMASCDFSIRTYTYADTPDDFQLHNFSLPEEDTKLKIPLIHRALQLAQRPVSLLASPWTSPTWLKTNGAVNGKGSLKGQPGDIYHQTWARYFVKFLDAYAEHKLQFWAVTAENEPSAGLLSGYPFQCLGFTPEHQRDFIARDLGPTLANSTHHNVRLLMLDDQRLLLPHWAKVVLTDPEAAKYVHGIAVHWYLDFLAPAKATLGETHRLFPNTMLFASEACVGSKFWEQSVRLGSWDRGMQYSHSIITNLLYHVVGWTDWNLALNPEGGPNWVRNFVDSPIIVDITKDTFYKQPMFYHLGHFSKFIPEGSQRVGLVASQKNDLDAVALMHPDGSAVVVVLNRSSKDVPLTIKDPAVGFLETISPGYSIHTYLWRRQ
In short: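 Normal human glucocerebrosidase (0.2 nM final) was assayed with resorufin β-D-glucopyranoside (30 uM final) in 50mM citric acid/KH2PO4, 10mM sodium taurocholate, 0.01% tween-20, pH 5.9. Compounds were titrated; fluorescence (Ex 548, Em 600) read after 20 min at RT.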
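Also: the screen sought inhibitors.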
Potency is read from the fitted curve at half-maximal effect.

SMILES | Potency
O=C(CCCCCn1c(=S)[nH]c2cc3c(cc2c1=O)OCO3)N1CCN(C(=O)c2ccco2)CC1 | inconclusive [decreasing]
O=C(Nc1ccc2c(c1)OCO2)C1CC(c2ccccc2Cl)=NO1 (centres undefined) | inconclusive [increasing]
Cc1nc2ccc(NC(=O)N3CCC(c4ccccc4)C3)cc2nc1C (centres undefined) | inconclusive [decreasing]
O=C(NCCCN1CCN(c2ccccc2F)CC1)Nc1ccc(F)cc1 | inconclusive [decreasing]
Cc1ccc(Nc2nc(N)nc(CN3CCN(c4ccccc4F)CC3)n2)cc1 | active: 1.4 µM
CC(Nc1nc(N2CCN(S(C)(=O)=O)CC2)nc2ccccc12)c1ccccc1 (centres undefined) | inconclusive [decreasing]
O=C(c1cc(-c2ccc(Cl)cc2Cl)on1)N1CCOCC1 | inactive: > 76.9 µM
CCCSCCCNC(=O)c1cc2c(s1)CS(=O)(=O)C2 | inconclusive [decreasing]
O[C@@H]1C2CCCC1[C@]1(O)CCCCC1C2 (some centres undefined) | inactive: > 76.9 µM
CCC(=O)Oc1ccc(-c2nc(-c3cccnc3)no2)cc1 | active: 7.83 µM
CN1CCN(S(=O)(=O)c2ccc(Br)s2)CC1 | inconclusive [decreasing]
CCN(CC)c1ccc(C2CC(=O)NC3=C2C(=O)CC(C)(C)C3)cc1 (centres undefined) | inactive: > 76.9 µM
O=C(Oc1ccc(-c2cn3c(n2)SCC3)cc1)c1ccccc1 | inconclusive [decreasing]
CN(C)c1ccc(-c2nc3ccccc3n2C)cc1 | inconclusive [decreasing]
CCOC(=O)c1sc(NC(=O)CCn2nnc3ccccc32)c(C(=O)OCC)c1C | inconclusive [increasing]
CCCc1nc2ccccc2c(C(=O)OC2CCOC2=O)c1CC (centres undefined) | active: 12 µM
O=C(CCc1nc2ccccc2[nH]1)Nc1ccccc1 | inconclusive [decreasing]
O=C(NCc1ccco1)c1ccc2c(=O)n(Cc3ccco3)c(SCC(=O)N3CCCC3)nc2c1 | inactive: > 76.9 µM
COCCSc1nnc(NC(=O)C2CCCCC2)s1 | inconclusive [decreasing]
O=C(CCN1CCCC1)Nc1cccc(Br)c1 | inconclusive [decreasing]
COc1ccc(C)cc1NC(=O)CSc1nnc(COc2ccc(Cl)cc2)n1Cc1ccco1 | inconclusive [decreasing]
CCOc1ccc(-c2nnc(N(CC)C(=O)C3CCC3)s2)cc1 | inactive: > 76.9 µM
COc1ccc(S(=O)(=O)N(C)CC(=O)N2CCCCCC2)cc1OC | inactive: > 76.9 µM
COc1ccc(N2CCN(Cc3cc(=O)oc4cc(C)c(Cl)cc34)CC2)cc1 | active: 5.27 µM
CCCCCSc1nc2c(cnn2-c2ccccc2)c(=O)[nH]1 | active: 13.3 µM
COCCn1c(=O)c2c3c(sc2n(CC(N)=O)c1=O)CCCC3 | inactive: > 76.9 µM
COc1nc(-c2ccccc2)ccc1-c1noc(-c2ccco2)n1 | inactive

SMILES | Potency
Cc1cc(C(=O)CSc2nnc(-c3ccccc3)n2C)c(C)n1C | inactive: > 76.9 µM
CC(C)(C)NC(=O)Cn1nnc(-c2ccccc2Cl)n1 | active: 15.2 µM
COc1ccc2c(c1)c1ncn(Cc3ccco3)c(=O)c1n2C | inconclusive [increasing]
COC(=O)c1cc2sccc2n1CC(=O)Nc1cc(OC)cc(OC)c1 | inconclusive [decreasing]
O=C(NCc1ccc2c(c1)OCO2)c1ccc(C2SCC(=O)N2Cc2ccco2)cc1 (centres undefined) | inconclusive [decreasing]
CCOc1ccccc1NC(=O)C1CCCN1C(=O)OCc1ccccc1 (centres undefined) | inconclusive [decreasing]
CN(Cc1ccccc1)Cc1ccccc1F | inactive: > 76.9 µM
CC(=O)Nc1ccc(-c2cn3ccsc3n2)cc1 | inactive: > 76.9 µM
CCCOc1ccc2oc(=O)c3c(c2c1)CCCN3C(=O)CN1CCc2ccccc2C1 | inconclusive [decreasing]
COc1cc(-c2noc(-c3ccco3)n2)cc(OC)c1OC | inactive
CCC(=O)N1CCc2cc(S(=O)(=O)CCC(=O)Nc3nc(C)cs3)ccc21 | inactive: > 76.9 µM
CCCc1nc2n[nH]c(N)c2c2c1CCC2 | inactive: > 76.9 µM
O=C(O)c1cc(NCc2ccccc2C(F)(F)F)ccc1N1CCOCC1 | active: 12.6 µM
CCOC(=O)c1cnc(-n2nc(C)cc2C)nc1N1CCOCC1 | inactive: > 76.9 µM
O=c1cc(N2CCN(Cc3ccccc3)CC2)[nH]c(=O)n1-c1cccc(C(F)(F)F)c1 | inconclusive [decreasing]
Cc1ccnc(N2CCN(C(=O)CSc3nc4ccccc4nc3N3CCCCC3)CC2)c1 | inconclusive [decreasing]
COCCN1Cc2cccc(C(=O)NC3CCCCCC3)c2C1=O | inconclusive [decreasing]
COC(=O)C1=C(CN2CCc3ccccc32)NC(=O)NC1c1cc(C)ccc1C (centres undefined) | inconclusive [decreasing]
Cc1ccc(Cn2nnc3c(=O)[nH]c(C4CCN(S(=O)(=O)c5cc(C)ccc5C)CC4)nc32)cc1 | inconclusive [decreasing]
CCC(c1nnnn1Cc1ccco1)N(CCc1ccccc1)Cc1cc2cc(C)ccc2[nH]c1=O (centres undefined) | inactive
COC(=O)C1=C(C)OC(N)=C(C#N)C1C1CCCCC1 (centres undefined) | inactive: > 76.9 µM
COC(=O)c1ccc(OCC(=O)c2ccc(O)cc2O)cc1 | inconclusive [decreasing]
N#Cc1c(NC(=O)Cn2c(=O)oc3ccccc32)oc(-c2ccccc2)c1-c1ccccc1 | inconclusive [decreasing]
COC(=O)c1cc2c(=O)n3ccccc3nc2n(C(C)C)c1=N | inactive: > 76.9 µM
O=C(c1cc2nc(-c3ccco3)cc(C(F)(F)F)n2n1)N1CCN(c2ccccn2)CC1 | inactive: > 76.9 µM
CCOc1ccccc1C(=O)Nc1nncs1 | inactive: > 76.9 µM
O=C(Nc1cccc(C(F)(F)F)c1)N1CCC(c2nc(-c3ccc(F)cc3)no2)CC1 | inconclusive [decreasing]

SMILES | Potency
COc1cc2c(cc1NC(=O)CSc1nnc(Cc3cccs3)n1C)oc1ccccc12 | inconclusive [increasing]
Cc1cc(NC(=O)c2ccc3c(c2)OCO3)no1 | inconclusive [decreasing]
Cc1ccc(-c2cc(C(=O)NCCCn3ccnc3)c3cc(Br)ccc3n2)o1 | inconclusive [decreasing]
CN1CCN(S(=O)(=O)c2cccc(C(=O)Nc3sc4c(c3C(N)=O)CCCC4)c2)CC1 | inconclusive [decreasing]
CCOC(=O)CSc1nc2ccc(N3CCOCC3)cc2c(=O)n1Cc1ccc2c(c1)OCO2 | inactive: > 76.9 µM
CC(C)(C)c1cnnn1-c1ccc(NC(=O)c2ccc3c(c2)OCO3)cc1 | inconclusive [decreasing]
Cc1ccc(-n2c(C)cc(C3N=C(N)Nc4nc5ccccc5n43)c2C)c(C)c1 (centres undefined) | inconclusive [decreasing]
O=C(Oc1ccc2c(c1)OCO2)c1cc2c(s1)CCC2 | inactive: > 76.9 µM
Cc1ccc2[nH]c3c(NCc4ccco4)ncnc3c2c1 | inconclusive [decreasing]
O=C(CCCn1c(=S)[nH]c2cc3c(cc2c1=O)OCO3)N1CCc2ccccc2C1 | inconclusive [decreasing]
Cc1cc(C(=O)COC(=O)c2ccc3c(c2)OCO3)c(C)n1Cc1cccs1 | active: 14 µM
O=c1cc(-c2ccccc2)[nH]c2ccccc12 | inconclusive [decreasing]
CC(C)n1c(N2CCN(C(=O)NCc3ccccc3)CC2)nc2ccccc21 | inconclusive [decreasing]
CCOc1nc(-c2ccc(OC)cc2)ccc1-c1noc(-c2cc(OC)c(OC)c(OC)c2)n1 | active: 6.96 µM
C=CCn1c(SCC(=O)c2ccc(OC)cc2)nnc1C(C)NC(=O)c1cccs1 (centres undefined) | inactive: > 76.9 µM
O=S(=O)(Nc1ccc2c(c1)nc1n2CCOC1)c1ccccc1 | inconclusive [decreasing]
COc1ccc(-c2noc(-c3cc(Cl)ccc3Cl)n2)cc1OC | inconclusive [increasing]
CCOC(=O)c1ccccc1NC(=O)c1cncc(Br)c1 | inconclusive [increasing]
COc1ccc(N2CCCn3c2nc2c3c(=O)n(CCc3ccccc3)c(=O)n2C)cc1 | active: 12 µM
CC(C)COC(=O)N(C)c1ccc(C(O)(C(F)(F)F)C(F)(F)F)cc1 | inconclusive [decreasing]
COCCNC(=O)c1ccc(NS(=O)(=O)c2cc(C)ccc2C)cc1 | active: 7.13 µM
O=C(C1CCC1)N1CCc2cc(S(=O)(=O)NCC3COc4ccccc4O3)ccc21 (centres undefined) | inconclusive [decreasing]
CCc1nnc(NC(=O)c2ccc(S(=O)(=O)N3CCN(Cc4ccccc4)CC3)cc2)s1 | inactive: > 76.9 µM
COC(=O)c1ccccc1NC(=O)NC1CCN(Cc2ccccc2)CC1 | inconclusive [decreasing]
CCOC(=O)c1cc(NC(=O)CSCCO)ccc1Cl | inconclusive [decreasing]
